Our source for the binding values is publication PMC10904043.

Sequences of proteins named here, by UniProt entry; tags and fusion partners are left off. Residues count along the entry.
UniProt P16671: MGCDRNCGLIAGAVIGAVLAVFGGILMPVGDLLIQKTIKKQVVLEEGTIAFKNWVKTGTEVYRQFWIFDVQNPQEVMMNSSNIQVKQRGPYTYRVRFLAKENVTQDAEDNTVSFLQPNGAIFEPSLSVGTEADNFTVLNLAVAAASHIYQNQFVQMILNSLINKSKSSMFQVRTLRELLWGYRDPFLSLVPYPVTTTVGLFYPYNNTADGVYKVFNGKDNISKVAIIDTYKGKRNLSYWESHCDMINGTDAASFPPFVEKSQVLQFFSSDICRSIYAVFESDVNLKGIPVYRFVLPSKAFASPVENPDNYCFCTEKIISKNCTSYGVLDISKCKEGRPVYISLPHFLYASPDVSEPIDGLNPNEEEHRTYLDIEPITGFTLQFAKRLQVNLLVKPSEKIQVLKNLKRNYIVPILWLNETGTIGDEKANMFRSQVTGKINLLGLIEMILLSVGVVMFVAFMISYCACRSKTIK
UniProt P04114, residues 28-4563: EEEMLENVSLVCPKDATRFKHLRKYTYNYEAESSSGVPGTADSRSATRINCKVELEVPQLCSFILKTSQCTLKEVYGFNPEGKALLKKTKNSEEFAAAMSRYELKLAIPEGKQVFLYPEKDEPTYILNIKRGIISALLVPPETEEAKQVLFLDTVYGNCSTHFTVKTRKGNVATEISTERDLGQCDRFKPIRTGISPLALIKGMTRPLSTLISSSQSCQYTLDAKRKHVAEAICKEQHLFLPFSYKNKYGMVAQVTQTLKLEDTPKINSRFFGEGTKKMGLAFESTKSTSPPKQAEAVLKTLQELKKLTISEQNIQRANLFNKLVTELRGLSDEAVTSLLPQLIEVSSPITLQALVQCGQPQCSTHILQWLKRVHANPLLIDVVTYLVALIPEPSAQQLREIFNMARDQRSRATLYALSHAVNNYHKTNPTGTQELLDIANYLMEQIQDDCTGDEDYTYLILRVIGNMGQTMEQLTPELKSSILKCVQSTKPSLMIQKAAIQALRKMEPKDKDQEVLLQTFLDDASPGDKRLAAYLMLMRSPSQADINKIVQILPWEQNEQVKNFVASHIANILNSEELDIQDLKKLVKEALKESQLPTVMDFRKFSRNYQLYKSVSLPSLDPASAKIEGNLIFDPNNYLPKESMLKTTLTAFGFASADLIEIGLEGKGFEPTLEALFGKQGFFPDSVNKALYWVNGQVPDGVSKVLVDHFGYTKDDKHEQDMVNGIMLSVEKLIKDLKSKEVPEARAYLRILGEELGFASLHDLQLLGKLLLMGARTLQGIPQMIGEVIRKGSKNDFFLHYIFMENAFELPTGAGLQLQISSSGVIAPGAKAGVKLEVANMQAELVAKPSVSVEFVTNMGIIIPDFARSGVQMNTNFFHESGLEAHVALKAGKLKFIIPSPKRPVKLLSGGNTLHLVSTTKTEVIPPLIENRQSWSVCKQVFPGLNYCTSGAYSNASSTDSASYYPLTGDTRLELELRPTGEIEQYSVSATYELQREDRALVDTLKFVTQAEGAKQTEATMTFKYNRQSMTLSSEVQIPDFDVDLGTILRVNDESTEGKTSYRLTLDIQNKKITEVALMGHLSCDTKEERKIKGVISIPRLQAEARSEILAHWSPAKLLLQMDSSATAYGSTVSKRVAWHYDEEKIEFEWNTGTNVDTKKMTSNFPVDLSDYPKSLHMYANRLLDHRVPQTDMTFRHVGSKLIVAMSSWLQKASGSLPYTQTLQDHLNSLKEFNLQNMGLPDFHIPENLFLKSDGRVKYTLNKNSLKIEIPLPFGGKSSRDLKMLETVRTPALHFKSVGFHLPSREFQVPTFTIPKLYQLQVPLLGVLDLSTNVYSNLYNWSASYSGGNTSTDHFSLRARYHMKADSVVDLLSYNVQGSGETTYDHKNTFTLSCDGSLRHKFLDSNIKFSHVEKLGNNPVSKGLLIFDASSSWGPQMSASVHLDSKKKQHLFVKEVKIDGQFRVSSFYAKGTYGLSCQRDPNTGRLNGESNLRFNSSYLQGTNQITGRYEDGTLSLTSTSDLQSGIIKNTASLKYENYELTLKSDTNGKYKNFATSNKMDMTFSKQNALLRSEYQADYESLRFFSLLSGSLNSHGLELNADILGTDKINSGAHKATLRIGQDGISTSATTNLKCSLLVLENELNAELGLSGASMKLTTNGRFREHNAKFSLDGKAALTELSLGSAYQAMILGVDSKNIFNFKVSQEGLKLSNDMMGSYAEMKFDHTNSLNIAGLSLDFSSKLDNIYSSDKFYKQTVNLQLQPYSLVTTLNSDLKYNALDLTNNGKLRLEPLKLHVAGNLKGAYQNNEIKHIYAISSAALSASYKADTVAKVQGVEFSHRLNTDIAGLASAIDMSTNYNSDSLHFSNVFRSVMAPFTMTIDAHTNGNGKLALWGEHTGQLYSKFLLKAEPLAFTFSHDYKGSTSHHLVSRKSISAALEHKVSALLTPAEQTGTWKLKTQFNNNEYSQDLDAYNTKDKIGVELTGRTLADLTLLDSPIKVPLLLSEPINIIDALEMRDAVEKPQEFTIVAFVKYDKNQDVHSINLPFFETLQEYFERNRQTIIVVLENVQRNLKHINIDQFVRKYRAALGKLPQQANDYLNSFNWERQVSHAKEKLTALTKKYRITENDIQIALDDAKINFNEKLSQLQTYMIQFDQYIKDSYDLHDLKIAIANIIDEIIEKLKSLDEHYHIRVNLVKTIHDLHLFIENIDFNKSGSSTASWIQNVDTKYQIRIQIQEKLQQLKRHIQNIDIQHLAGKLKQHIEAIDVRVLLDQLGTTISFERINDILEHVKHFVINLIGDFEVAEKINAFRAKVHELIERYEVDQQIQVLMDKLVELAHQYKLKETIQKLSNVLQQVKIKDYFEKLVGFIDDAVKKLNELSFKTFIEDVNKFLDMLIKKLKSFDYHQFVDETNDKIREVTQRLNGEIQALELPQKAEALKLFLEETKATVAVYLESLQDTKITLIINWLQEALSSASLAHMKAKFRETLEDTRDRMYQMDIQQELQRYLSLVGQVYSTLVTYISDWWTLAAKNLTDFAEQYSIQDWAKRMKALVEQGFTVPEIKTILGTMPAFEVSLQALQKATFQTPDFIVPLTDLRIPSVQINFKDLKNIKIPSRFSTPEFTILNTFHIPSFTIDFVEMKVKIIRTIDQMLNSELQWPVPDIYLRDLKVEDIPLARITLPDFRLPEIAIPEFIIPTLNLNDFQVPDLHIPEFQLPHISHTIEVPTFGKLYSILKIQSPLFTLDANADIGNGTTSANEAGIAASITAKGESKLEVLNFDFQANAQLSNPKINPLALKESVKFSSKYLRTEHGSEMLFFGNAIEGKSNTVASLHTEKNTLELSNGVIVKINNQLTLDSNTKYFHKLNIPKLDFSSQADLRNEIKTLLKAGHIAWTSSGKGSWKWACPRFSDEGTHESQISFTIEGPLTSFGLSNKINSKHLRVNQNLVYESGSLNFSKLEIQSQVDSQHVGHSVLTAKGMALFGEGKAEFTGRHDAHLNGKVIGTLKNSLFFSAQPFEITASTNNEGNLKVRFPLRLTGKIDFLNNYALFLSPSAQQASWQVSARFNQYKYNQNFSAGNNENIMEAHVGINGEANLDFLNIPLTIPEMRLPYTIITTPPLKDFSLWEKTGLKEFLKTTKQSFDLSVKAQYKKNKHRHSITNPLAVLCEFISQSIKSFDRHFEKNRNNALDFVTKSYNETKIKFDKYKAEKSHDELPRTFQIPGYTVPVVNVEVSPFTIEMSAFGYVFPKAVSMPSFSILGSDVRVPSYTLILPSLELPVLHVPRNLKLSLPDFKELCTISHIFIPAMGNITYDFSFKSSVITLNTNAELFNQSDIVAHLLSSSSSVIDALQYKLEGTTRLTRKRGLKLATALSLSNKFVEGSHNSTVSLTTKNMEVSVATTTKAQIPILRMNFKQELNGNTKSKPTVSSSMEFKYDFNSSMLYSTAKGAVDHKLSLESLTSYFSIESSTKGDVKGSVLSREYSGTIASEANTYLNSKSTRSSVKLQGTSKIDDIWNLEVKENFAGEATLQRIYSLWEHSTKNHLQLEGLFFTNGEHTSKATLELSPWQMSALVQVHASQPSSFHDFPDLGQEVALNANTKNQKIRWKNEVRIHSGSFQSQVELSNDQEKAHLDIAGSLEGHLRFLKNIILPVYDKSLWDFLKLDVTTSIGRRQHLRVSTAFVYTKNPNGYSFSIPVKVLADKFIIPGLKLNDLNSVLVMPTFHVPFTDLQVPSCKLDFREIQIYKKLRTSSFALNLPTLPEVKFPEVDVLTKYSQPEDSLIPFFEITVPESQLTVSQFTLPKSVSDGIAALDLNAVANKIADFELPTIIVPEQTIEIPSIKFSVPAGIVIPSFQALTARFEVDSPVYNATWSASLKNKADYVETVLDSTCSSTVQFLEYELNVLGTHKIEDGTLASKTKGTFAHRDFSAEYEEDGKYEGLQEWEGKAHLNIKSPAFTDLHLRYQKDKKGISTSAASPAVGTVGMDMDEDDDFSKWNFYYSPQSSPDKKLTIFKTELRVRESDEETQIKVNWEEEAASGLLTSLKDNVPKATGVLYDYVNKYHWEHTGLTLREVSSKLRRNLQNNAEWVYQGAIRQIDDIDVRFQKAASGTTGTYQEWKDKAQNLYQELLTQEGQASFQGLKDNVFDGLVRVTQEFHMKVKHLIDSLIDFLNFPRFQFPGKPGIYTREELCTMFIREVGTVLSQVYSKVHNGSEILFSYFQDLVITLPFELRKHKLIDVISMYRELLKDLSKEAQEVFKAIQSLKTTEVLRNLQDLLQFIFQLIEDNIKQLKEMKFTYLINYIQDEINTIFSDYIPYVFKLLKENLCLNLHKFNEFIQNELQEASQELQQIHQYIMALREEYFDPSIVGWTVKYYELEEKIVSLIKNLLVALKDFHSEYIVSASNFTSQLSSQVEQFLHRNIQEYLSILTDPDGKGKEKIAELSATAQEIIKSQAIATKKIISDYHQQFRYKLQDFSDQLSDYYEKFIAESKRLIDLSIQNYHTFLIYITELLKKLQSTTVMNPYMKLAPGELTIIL

For test [1], the target named is CD36 (human (endogenous in THP-1 and HMDMs)) (UniProt P16671). As to the kind of experiment: proximity ligation; HMDMs treated with biotinylated LDL with or without LL37; PLA between LDL and LDL receptors (spatial correlation <40 nm); only the binder purified.
Test [2] has the same target. As to the kind of experiment: proximity ligation; THP-1 cells treated with biotinylated LDL with or without LL37; PLA between LDL and LDL receptors (spatial correlation <40 nm); only the binder purified.

Results are given in words; binding and its absence hold for the method and conditions named. Binding seen in cells or lysates may run through a third protein. Some results given as binding are weak or reduced against the parent protein; the word gives no strength.

With “biotinylated LDL (low density lipoprotein particle) (from UniProt P04114 28-4563) (complex)”, the binding result in test [1] and in test [2] was “binds” each time.
